Results taken from US20220267410A1 (UNIVERSITAT STUTTGART, published 2022).

T1: TNFR2 on Kym-1 cells (UniProt P20333 23-461, limits assumed)
T1 sequence (looked up): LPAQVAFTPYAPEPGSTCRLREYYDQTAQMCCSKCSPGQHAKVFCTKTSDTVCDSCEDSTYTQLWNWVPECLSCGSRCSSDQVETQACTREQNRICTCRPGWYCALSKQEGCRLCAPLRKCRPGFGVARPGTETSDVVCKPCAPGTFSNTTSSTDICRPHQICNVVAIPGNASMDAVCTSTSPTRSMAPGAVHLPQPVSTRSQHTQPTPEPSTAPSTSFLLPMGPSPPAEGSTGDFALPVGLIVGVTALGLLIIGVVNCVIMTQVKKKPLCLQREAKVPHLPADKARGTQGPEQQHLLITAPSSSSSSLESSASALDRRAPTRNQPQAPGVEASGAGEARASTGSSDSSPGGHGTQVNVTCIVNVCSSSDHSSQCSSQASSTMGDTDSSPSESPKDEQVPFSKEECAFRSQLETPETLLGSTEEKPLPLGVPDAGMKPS

T2: human TNFR2-Fc (etanercept) (human, UniProt P20333 23-257)
T2 construct: Commercial drug coated on ELISA plates (200 ng/well); also called immobilized TNF-R2; not shown: Fc part of etanercept
T2 sequence (looked up): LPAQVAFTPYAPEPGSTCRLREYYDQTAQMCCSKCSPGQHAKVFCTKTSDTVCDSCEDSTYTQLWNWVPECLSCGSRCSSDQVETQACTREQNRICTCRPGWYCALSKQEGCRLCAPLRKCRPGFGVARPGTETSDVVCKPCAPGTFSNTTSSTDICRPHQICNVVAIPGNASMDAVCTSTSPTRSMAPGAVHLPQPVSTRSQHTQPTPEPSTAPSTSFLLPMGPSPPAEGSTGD


Experiments:
TNFR2 on Kym-1 cells = molecular target: T1, TNFR2 on Kym-1 cells; assay: cell-based or functional assay
[1] = molecular target: T2, human TNFR2-Fc (etanercept); assay: ELISA on coated etanercept
Procedure: The binding of scTNFR2 and the scTNFR2-Fc(Δab) proteins to human TNFR2-Fc (etanercept) was analyzed by ELISA. 96-well ELISA plates were coated with 200 ng/well etanercept in coating buffer (0.1 M sodium carbonate, pH 9.5) overnight at 4° C., blocked with 2% skim milk in PBS (MPBS) and washed with washing buffer PBST (PBS, 0.05 Tween 20). ScTNFR2 and scTNFR2-Fc(Δab) proteins were titrated in duplicates and incubated on the plates for 2 h at room temperature, followed by washing with PBST. Receptor-bound complexes were detected with mouse anti-huTNFα F6C5 (Novus, 1 μg/ml) and goat anti-mouse IgG(Fc)-HRP (Sigma-Aldrich, 1:10,000), followed by extensive washing with PBST each, before incubation with HRP substrate.

Row | EC50 [1] | Binder | EC50 on Kym-1 (cell death, crystal violet), without 80M2 (TNFR2 on Kym-1 cells)
1 | 0.14 nM | scTNFR2(141)-Fc(Δab) (protein 149) (Fc fusion, Hexavalent dimer through the Fc(Δab) region; no His tag) [about 150 residues not given here]GSRTPSDKPVAHVVANPQAEGQLQWLNRRANALLANGVELRDNQLVVPSEGLYLIYSQVLFKGQGCPSTHVLLTHTISRIAVSYQTKVNLLSAIKSPCQRETPEGAEAKPWYEPIYLGGVFQLEKGDRLSAEINRPDYLNFRESGQVYFGIIALGSRTPSDKPVAHVVANPQAEGQLQWLNRRANALLANGVELRDNQLVVPSEGLYLIYSQVLFKGQGCPSTHVLLTHTISRIAVSYQTKVNLLSAIKSPCQRETPEGAEAKPWYEPIYLGGVFQLEKGDRLSAEINRPDYLNFRESGQVYFGIIALGGSGGGGSGGDKTHTCPPCPAPPVAGPSVFLFPPKPKDTLMISRTPEVTCVVVDVSHEDPEVKFNWYVDGVEVHNAKTKPREEQYNSTYRVVSVLTVLHQDWLNGKEYKCKVSNKGLPSSIEKTISKAKGQPREPQVYTLPPSRDELTKNQVSLTCLVKGFYPSDIAVEWESNGQPENNYKTTPPVLDSDGSFFLYSKLTVDKSRWQQGNVFSCSVMHEALHNHYTQKSLSLSPGK | 0.0126 nM
2 | 0.29 nM | scTNFR2(144)-Fc(Δab) (protein 152) (Fc fusion, Hexavalent dimer through the Fc(Δab) region; no His tag; also called scTNFR2-Fc 152; variant 152) [about 150 residues not given here]GGRTPSDKPVAHVVANPQAEGQLQWLNRRANALLANGVELRDNQLVVPSEGLYLIYSQVLFKGQGCPSTHVLLTHTISRIAVSYQTKVNLLSAIKSPCQRETPEGAEAKPWYEPIYLGGVFQLEKGDRLSAEINRPDYLNFRESGQVYFGIIALGGRTPSDKPVAHVVANPQAEGQLQWLNRRANALLANGVELRDNQLVVPSEGLYLIYSQVLFKGQGCPSTHVLLTHTISRIAVSYQTKVNLLSAIKSPCQRETPEGAEAKPWYEPIYLGGVFQLEKGDRLSAEINRPDYLNFRESGQVYFGIIALGGSGGGGSGGDKTHTCPPCPAPPVAGPSVFLFPPKPKDTLMISRTPEVTCVVVDVSHEDPEVKFNWYVDGVEVHNAKTKPREEQYNSTYRVVSVLTVLHQDWLNGKEYKCKVSNKGLPSSIEKTISKAKGQPREPQVYTLPPSRDELTKNQVSLTCLVKGFYPSDIAVEWESNGQPENNYKTTPPVLDSDGSFFLYSKLTVDKSRWQQGNVFSCSVMHEALHNHYTQKSLSLSPGK | 0.00808 nM
3 | 0.25 nM | scTNFR2(143)-Fc(Δab) (protein 151) (Fc fusion, Hexavalent dimer through the Fc(Δab) region; no His tag) [about 150 residues not given here]GGGPSDKPVAHVVANPQAEGQLQWLNRRANALLANGVELRDNQLVVPSEGLYLIYSQVLFKGQGCPSTHVLLTHTISRIAVSYQTKVNLLSAIKSPCQRETPEGAEAKPWYEPIYLGGVFQLEKGDRLSAEINRPDYLNFRESGQVYFGIIALGGGPSDKPVAHVVANPQAEGQLQWLNRRANALLANGVELRDNQLVVPSEGLYLIYSQVLFKGQGCPSTHVLLTHTISRIAVSYQTKVNLLSAIKSPCQRETPEGAEAKPWYEPIYLGGVFQLEKGDRLSAEINRPDYLNFRESGQVYFGIIALGGSGGGGSGGDKTHTCPPCPAPPVAGPSVFLFPPKPKDTLMISRTPEVTCVVVDVSHEDPEVKFNWYVDGVEVHNAKTKPREEQYNSTYRVVSVLTVLHQDWLNGKEYKCKVSNKGLPSSIEKTISKAKGQPREPQVYTLPPSRDELTKNQVSLTCLVKGFYPSDIAVEWESNGQPENNYKTTPPVLDSDGSFFLYSKLTVDKSRWQQGNVFSCSVMHEALHNHYTQKSLSLSPGK | 0.024 nM
4 | 0.18 nM | scTNFR2(145)-Fc(Δab) (protein 153) (Fc fusion, Hexavalent dimer through the Fc(Δab) region; no His tag; also called scTNFR2-Fc 153; variant 153) [about 150 residues not given here]GGTPSDKPVAHVVANPQAEGQLQWLNRRANALLANGVELRDNQLVVPSEGLYLIYSQVLFKGQGCPSTHVLLTHTISRIAVSYQTKVNLLSAIKSPCQRETPEGAEAKPWYEPIYLGGVFQLEKGDRLSAEINRPDYLNFRESGQVYFGIIALGGTPSDKPVAHVVANPQAEGQLQWLNRRANALLANGVELRDNQLVVPSEGLYLIYSQVLFKGQGCPSTHVLLTHTISRIAVSYQTKVNLLSAIKSPCQRETPEGAEAKPWYEPIYLGGVFQLEKGDRLSAEINRPDYLNFRESGQVYFGIIALGGSGGGGSGGDKTHTCPPCPAPPVAGPSVFLFPPKPKDTLMISRTPEVTCVVVDVSHEDPEVKFNWYVDGVEVHNAKTKPREEQYNSTYRVVSVLTVLHQDWLNGKEYKCKVSNKGLPSSIEKTISKAKGQPREPQVYTLPPSRDELTKNQVSLTCLVKGFYPSDIAVEWESNGQPENNYKTTPPVLDSDGSFFLYSKLTVDKSRWQQGNVFSCSVMHEALHNHYTQKSLSLSPGK | 0.0304 nM
